In all, about 33,000 sequences were measured (“E-score (-0.5 to 0.5)”: median about -0.04, highest 2% from about 0.36 on). The list shows a part of the results.
target: T1, Hmlalpha2 (UniProt P0CY09); assay: PBM E-score (8-mer binding enrichment) (E-score (-0.5 to 0.5)); higher = stronger / more preferred TF binding; most listed sequences are background and not binding sites; details: protein concentration: 200 nM; construct: GST-full length
T1 sequence: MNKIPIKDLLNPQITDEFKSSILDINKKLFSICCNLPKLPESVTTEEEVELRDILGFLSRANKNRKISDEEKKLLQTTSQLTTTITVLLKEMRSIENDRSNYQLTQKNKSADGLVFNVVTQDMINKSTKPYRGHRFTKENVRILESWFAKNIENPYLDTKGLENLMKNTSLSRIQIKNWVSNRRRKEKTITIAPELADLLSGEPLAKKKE
Method: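 Universal 'all 10-mer' protein binding microarrays (Agilent AMADID 015681) probed with GST-tagged S. cerevisiae TFs (full-length or DBD) made by in vitro transcription/translation (PURExpress), about 100-200 nM. Bound TF was detected with fluorescent anti-GST. Each ungapped 8-mer (which stands for itself and its reverse complement) is scored by the PBM enrichment score (E-score), a modified Wilcoxon-Mann-Whitney statistic from -0.5 to +0.5, computed with the Universal PBM Analysis Suite. Scale: above 0.35 generally sequence-specific binding.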

Sequence | PBM E-score
CATCGTTA | -0.118
TCCCAGCA | -0.135
ATTCATTA | 0.124
CATTGTGG | -0.0779
CGGTATAA | -0.0126
CGGGTTTC | -0.0423
AAGCCGTG | 0.0506
AACAGATT | 0.0721
CGGTTAAC | 0.118
ATATCCTG | 0.00984
AGGCCTAC | -0.00827
TAGCCGCA | -0.196
GTCATGGA | -0.188
ACAAATGC | 0.118
CGGAAACC | -0.29
AGAAAACA | 0.259
AAAGGACA | 0.0138
AACGGGGT | -0.255
GTAAAGAC | 0.258
AGCAACCC | -0.204
ATTAATTC | 0.208
AGGGATCA | -0.131
GTGAGAAC | -0.136
CACTGAGC | -0.111

Sequence | PBM E-score
CCCTCAAA | -0.158
GCCCTGAC | 0.0421
TACACTGA | 0.258
GAAGCGAA | 0.112
ACAGACTG | -0.0243
TCACACGA | 0.325
ATGATTAA | 0.164
AGTATCGG | -0.0624
ACATTCGT | 0.221
CAATTAGG | 0.0235
CTCCAATA | 0.00473
ACAAAGGA | 0.0998
ATCGGCCG | -0.174
CACCTATA | 0.0244
GACGGTAA | -0.176
AGACGTCG | -0.158
GATGGCGA | -0.147
AGAATACA | 0.366
AGGGCAGG | -0.218
CGGGAGGA | -0.209
ACCTGGCA | -0.091
ATCTTATG | 0.0217
ACTGGGTA | -0.033
AAATTTCA | -0.00634

Sequence | PBM E-score
GTAGACCA | -0.0544
AATATCGT | 0.127
TGCTAACA | 0.245
ATTGGATA | -0.0251
CGTTTCAA | 0.0417
ACCAGTAT | -0.213
GGGCACCC | -0.368
TACCACTA | -0.0703
AAGAAACA | 0.239
ATCAAATC | 0.0221
CAGGACAG | -0.125
AATTGAGA | -0.0899
CCGATTAC | 0.216
GAGGCCAA | -0.12
CGCCCGTA | -0.163
CGCCTCGC | -0.21
AGCTTGTC | 0.133
ACCACGAG | -0.135
ATTTATAG | 0.0217
AATGATCG | -0.102
ATGGGACA | -0.284
GCACGGCC | -0.0358
ACATTAGC | -0.00543
ACTATGAT | -0.0386

Sequence | PBM E-score
ACTTACTC | 0.088
CATTAGAA | 0.155
CATAAGTA | 0.0775
CGACCGCG | -0.135
ACACACCT | 0.303
GAAATAAA | 0.0795
CGCCTGAG | -0.185
CAAACTGA | -0.0714
AATGGTAA | 0.2
CCACCCCA | -0.123
ATATTACG | 0.352
CGGACGCA | -0.241
ACGATGAG | 0.0592
GTGTGCAA | 0.2
GAGACATA | 0.103
CGATCACA | 0.213
CCCTAATA | -0.0852
GCTGTTGA | 0.102
GCATTCAA | -0.0147
ACTCCCAA | -0.103
CTCGAAAG | -0.11
CTAGACAG | -0.125

From the supplement of paper PMC3334620
